Test results reported in PubChem BioAssay AID588855 (National Center for Advancing Translational Sciences (NCATS), 2011).
In all, about 410,000 compounds went through this assay and about 5,000 (1.2%) were called active. The inconclusive results got no clear call from the source; some entries with a clear call stand among them for comparison. The call rests on the fitted dose curve; in most records, active means well fitted inhibition curve with a large enough effect; inconclusive means small, poorly fitted or top-dose-only effect; inactive means no such curve, though single readings can be large or run the other way. Where the call is inconclusive, the potency comes from a doubtful curve fit.
Potency means the concentration at half of the fitted maximal effect; tags describe the fitted curve by direction and shape.

Test: qHTS for Inhibitors of TGF-b; further: nearly all actives have a fitted effect of over 65% in size
Conditions: HepG2 CAGA-GFP TGF-b/SMAD3 reporter, GFP fluorescence, 18 h, TGF-beta stimulated, 500 pg/mL final; series mostly up to 46.1 µM
How it was run: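 Using HEPG2 CAGA-GFP reporter cells at 1000 cells/well, we pinned test compounds, stimulated with recombinant TGF-beta (500 pg/mL final) and measured total well GFP after 18 h.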
With `Cc1ccc(S(=O)(=O)N2CCN(c3ccnc4cc(Cl)ccc34)CC2)cc1` the Potency was inconclusive: 10 µM [inhibitor, partial curve].
In the case of `Cc1nnc2c3ccccc3nc(Nc3ccccc3C(=O)O)n12`, the Potency is reported as “inactive”.
In the case of `COc1ccc(S(=O)(=O)Nc2cc(-c3cn4ccc(C)cc4n3)ccc2C)cc1OC`, the Potency is reported as “inactive”.
In the case of `CSc1nc2[nH]c(=O)[nH]c2c(=O)[nH]1`, the Potency is reported as “inactive”.
For `CCn1ccc2cc(S(=O)(=O)N3CCC(C(=O)NCC(C)c4ccccc4)CC3)ccc21` (configuration not stated), the Potency was inconclusive: 35.5 µM [inhibitor, single point].
For `O=C(CSc1nnc(Nc2ccccc2F)s1)NCc1ccco1`, the Potency was inconclusive: 12.6 µM [inhibitor, single point].
In the case of `CCOc1ccc(S(=O)(=O)NCc2ccc3c(c2)CCN3C(=O)c2ccc(C)cc2)cc1`, the Potency is reported as inconclusive: 7.08 µM [inhibitor, partial curve].
In the case of `Cc1ccc(-c2nnc(Nc3ccc4c(c3)OCO4)c3ccccc23)cc1S(=O)(=O)NCCO`, the Potency is reported as inconclusive: 22.4 µM [inhibitor, single point].
With `O=C(COC(=O)c1ccccc1Cl)NCc1cccs1` the Potency was “inactive”.
For `O=C(COC(=O)c1cc(Cl)ccc1O)NNC(=O)c1ccccc1F`, the Potency was “inactive”.
With `Cc1cc(C(=O)N2CCN(c3cccc(Cl)c3)CC2)c2c(C)nn(-c3ccccc3Cl)c2n1` the Potency was inconclusive: 12.6 µM [inhibitor, partial curve].
With `CCc1ccc(C(C)NC(=O)/C=C/c2ccc(Br)cc2)cc1` (configuration not stated) the Potency was “inactive”.
In the case of `Cc1cc2c(c(=O)o1)C(C1C=CCCC1)C(C#N)=C(N)O2` (configuration not stated), the Potency is reported as inconclusive: 20 µM [inhibitor, single point].
For `COc1ccc(CN2C(=O)c3c(c(C)n(C)c3C)C2C(=O)NC2CCC(C)CC2)cc1` (configuration not stated), the Potency was “inactive”.
For `COCCNC(=O)C1CCCN(C(=O)c2cc(-c3cccs3)oc2C)CC1` (configuration not stated), the Potency was “inactive”.
In the case of `C[N+]1(CC(=O)c2ccc(Br)cc2)CCOCC1`, the Potency is reported as “inactive”.
In the case of `CCN(CC(=O)Nc1ccc(NC(C)=O)cc1)C(=O)c1cccnc1Sc1ccc(C)c(C)c1`, the Potency is reported as inconclusive: 6.31 µM [inhibitor, single point].
For `Cc1cccc2sc(N(Cc3cccnc3)C(=O)CCOc3ccccc3)nc12`, the Potency was inconclusive: 12.6 µM [inhibitor, partial curve].
For `CN(C)S(=O)(=O)c1ccc(C(=O)Nc2ccc(Cl)cc2)cc1`, the Potency was inconclusive: 11.2 µM [inhibitor, partial curve].
In the case of `Oc1cc2ccccc2cc1-c1n[nH]c(=S)n1Cc1ccco1`, the Potency is reported as “inactive”.
For `CC(C)CCNc1nc(N)c([N+](=O)[O-])c(N2CCCCCC2)n1`, the Potency was inconclusive: 25.1 µM [inhibitor, single point].
In the case of `COCCNC(=O)c1ccc(CSc2nc3ccccc3s2)cc1`, the Potency is reported as inconclusive: 7.08 µM [inhibitor, partial curve, poor fit].
In the case of `Cc1c(S(=O)(=O)N2CCCC2)c(=O)n(C)c(=O)n1C`, the Potency is reported as inconclusive: 25.1 µM [inhibitor, single point].
In the case of `O=C(NC1CCCCC1)C(CCc1ccccc1)N1CCOCC1` (configuration not stated), the Potency is reported as “inactive”.
With `C[C@H](CO)N1C[C@H](C)[C@@H](CN(C)C(=O)Nc2ccc3c(c2)OCO3)Oc2c(NC(=O)C3CCCCC3)cccc2C1=O` the Potency was inconclusive: 0.112 µM [inhibitor, full curve, poor fit].
In the case of `CC(=O)c1ccc(NS(=O)(=O)c2ccc(Br)s2)cc1`, the Potency is reported as “inactive”.
In the case of `O=c1[nH]n(-c2ccccc2)c(=O)cc1Cl`, the Potency is reported as “inactive”.
In the case of `O=S(=O)(NC1c2cccc3cccc(c23)C1N1CCNCC1)c1ccc(Cl)cc1` (configuration not stated), the Potency is reported as inconclusive: 25.1 µM [inhibitor, single point].
In the case of `C[N+]1(CC(=O)c2ccc(Cl)c(Cl)c2)CCOCC1`, the Potency is reported as “inactive”.
For `CCCN1CCC(=O)N([C@H](CN=[N+]=[N-])CC(C)C)CC1`, the Potency was inconclusive: 15.8 µM [inhibitor, partial curve, poor fit].
For `OC(CNCCc1ccc(C(F)(F)F)cc1)COc1cccc2ccccc12` (configuration not stated), the Potency was inconclusive: 20 µM [inhibitor, single point].
In the case of `CC1CCC2(CC1)NC(=O)N(Cc1cccc(C(F)(F)F)c1)C2=O` (configuration not stated), the Potency is reported as “inactive”.
For `CCCOC(=O)c1[nH]c2c(c1C)C(=O)CC(c1cccs1)C2` (configuration not stated), the Potency was inconclusive: 1.41 µM [inhibitor, full curve, poor fit].
With `CN(c1ccc(C(=O)Nc2ccccc2C(=O)N2CCCC2)cc1)S(C)(=O)=O` the Potency was “inactive”.
For `COc1cc(C2NC(=O)NC(C)=C2C(=O)OC(C)(C)C)ccc1OCC(N)=O` (configuration not stated), the Potency was “inactive”.
With `Cc1ccc(C(=O)Nc2cccc(C(F)(F)F)c2)cc1NC(=O)c1nccn1C` the Potency was inconclusive: 1 µM [inhibitor, full curve, poor fit].
For `COc1cccc(NC(=O)N(CCC(C)C)C2CCN(C(C)C)CC2)c1`, the Potency was “inactive”.
For `CCOC(=O)c1c(NC(=O)CSc2n[nH]c(N)n2)sc(CC)c1C`, the Potency was inconclusive: 20 µM [inhibitor, single point].
In the case of `O=C(Nc1ccc(F)cc1F)c1csc(-c2cccs2)n1`, the Potency is reported as inconclusive: 20 µM [inhibitor, partial curve, poor fit].
For `COC(=O)C1=C(C(=O)OC)[C@@H]2N(C)c3ccccc3[C@@]23C[C@@H](C(=O)OC)N(C(=O)c2ccc(Br)cc2)C3=N1`, the Potency was inconclusive: 20 µM [inhibitor, single point].
In the case of `CO/N=C(\c1nonc1N)N1CCN(c2ccc(Cl)cc2[N+](=O)[O-])CC1`, the Potency is reported as inconclusive: 35.5 µM [inhibitor, single point].
In the case of `Cc1cc(C)c(NC(=O)Cn2c(=O)n(CC3CCCO3)c(=O)c3ccccc32)c(C)c1` (configuration not stated), the Potency is reported as “inactive”.
With `CC(=O)Nc1c(C)nn(-c2ccccc2)c1N1CCC(C(=O)Nc2cc(F)ccc2F)CC1` the Potency was inconclusive: 0.562 µM [inhibitor, full curve, poor fit].
For `Cc1ccc(N2C(=O)c3n[nH]c(C)c3C2c2ccccc2Cl)cc1` (configuration not stated), the Potency was inconclusive: 15.8 µM [inhibitor, single point].
For `COc1ccccc1NC(=O)N1CCN(Cc2nc3ccc(C)cc3o2)CC1`, the Potency was inconclusive: 22.4 µM [inhibitor, single point].
In the case of `O=C(CNCC1CCCO1)Nc1ccccc1N1CCCCCC1` (configuration not stated), the Potency is reported as “inactive”.
In the case of `CCCCn1cc(S(=O)(=O)c2ccc(OC)cc2)c(=O)c2cc(F)c(N3CCOCC3)cc21`, the Potency is reported as “inactive”.
With `COc1cc(C(=O)COC(=O)C2CCN(c3ccc(C(F)(F)F)cn3)CC2)ccc1OC(F)F` the Potency was inconclusive: 6.31 µM [inhibitor, single point].
For `CC(C)(C)c1ccc(-c2n[nH]c(=S)n2C2CCCC2)cc1`, the Potency was inconclusive: 15.8 µM [inhibitor, single point].
For `N#CC1=C(N)C(C#N)(C#N)C(c2cccnc2)C2CN(C(=O)OCc3ccccc3)CC=C12` (configuration not stated), the Potency was inconclusive: 35.5 µM [inhibitor, single point].
With `O=C(CCNC(=O)OCc1ccccc1)NC1CCCCCC1` the Potency was inconclusive: 3.16 µM [inhibitor, single point].
With `CC1CCN(C(=O)COC(=O)CNC(=O)C23CC4CC(CC(C4)C2)C3)CC1` the Potency was “inactive”.
With `CCCN(CC(=O)Nc1ccccc1OC)C(=O)c1ccc2ncsc2c1` the Potency was “inactive”.
In the case of `CCC(Sc1nnc2c(n1)[nH]c1ccccc12)C(=O)Nc1ccccc1OC` (configuration not stated), the Potency is reported as inconclusive: 35.5 µM [inhibitor, single point].
For `OCCNc1ncnc2c1sc1nc(N3CCOCC3)c3c(c12)CCC3`, the Potency was “inactive”.
With `CCc1ccccc1NC(=O)CSc1ncc2c(n1)-c1cc(Cl)ccc1N(Cc1ccccc1)S2(=O)=O` the Potency was inconclusive: 3.16 µM [inhibitor, partial curve, poor fit].
For `COc1ccc(S(=O)(=O)N2CCCCCC2)cc1C(=O)OCc1cccc(OC)c1OC`, the Potency was “inactive”.
For `COc1ccc(NC(=S)NNc2ccc([N+](=O)[O-])cc2S(=O)(=O)Nc2ccc(C)cc2C)cc1`, the Potency was inconclusive: 15.8 µM [inhibitor, single point].
For `COc1ccc(C=C2CS(=O)(=O)CC(=Cc3ccc(OC)cc3)C2=O)cc1`, the Potency was active: 5.01 µM.
For `COc1ccc(N2CCN(CCCNC(=O)c3cnn(-c4ccc(C)cc4)c3-n3cccc3)CC2)cc1`, the Potency was inconclusive: 3.98 µM [inhibitor, partial curve, poor fit].
In the case of `O=C(Nc1cccc(-c2cccc(Cl)c2)c1)C1CCN(Cc2ccon2)CC1`, the Potency is reported as inconclusive: 35.5 µM [inhibitor, single point].
For `O=C1C(=C(c2ccccc2)c2ccccc2)Nc2ccccc21`, the Potency was “inactive”.
In the case of `CN1C(=O)Cc2cc(S(=O)(=O)NCc3ccc(Cl)cc3)ccc21`, the Potency is reported as “inactive”.
With `CC(C)[C@H](NC(=O)c1ccco1)C(=O)Nc1ccc(OC(F)F)cc1` the Potency was “inactive”.
In the case of `O=C(NC(=S)Nc1ccccc1Cl)C1CC1`, the Potency is reported as inconclusive: 2.51 µM [inhibitor, partial curve, poor fit].
For `CCN(CC(=O)Nc1ccc(NC(C)=O)cc1)C(=O)c1ccc(N2C(=O)c3ccccc3C2=O)cc1`, the Potency was “inactive”.
With `Cc1ccc(C)c2c1[nH]c1ccc([N+](=O)[O-])cc12` the Potency was “inactive”.
For `Cc1cc(NC(=O)CN2C(=O)S/C(=C\c3ccccc3)C2=O)no1`, the Potency was inconclusive: 0.112 µM [inhibitor, full curve, poor fit].
In the case of `CN(C)c1ccc(C(CNC(=O)c2ccccc2Cl)N2CCCC2)cc1` (configuration not stated), the Potency is reported as inconclusive: 35.5 µM [inhibitor, single point].
In the case of `CSc1ccccc1NC(=O)Nc1ccc(F)c(Cl)c1`, the Potency is reported as “inactive”.
For `Cc1cc(/C=C2/C(=N)N3C(c4ccccc4)=CSC3=NC2=O)c(C)n1-c1ccc(Cl)cc1`, the Potency was “inactive”.
With `CCOc1ccc(NC(=O)N(Cc2cn(CC)c3ccccc23)C2CCCCCC2)cc1` the Potency was inconclusive: 20 µM [inhibitor, partial curve, poor fit].
